# Results taken from article PMC4336329 (PLoS ONE, 2015).
# Screen size: about 310,000 compounds; about 14,000 (4.5%) showed an effect of 50% or more. The effect is printed as a negative number. The list shows a part of the results.
# Target: human ether-à-go-go-related gene (hERG) potassium channel (human, UniProt Q12809)
# Assay: primary screen, population patch clamp on CHO cells stably expressing hERG
# 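Also: peak tail current of the secondary pulse compared with the same well before compound.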
# human ether-à-go-go-related gene (hERG) potassium channel, sequence (Q12809 whole entry, looked up): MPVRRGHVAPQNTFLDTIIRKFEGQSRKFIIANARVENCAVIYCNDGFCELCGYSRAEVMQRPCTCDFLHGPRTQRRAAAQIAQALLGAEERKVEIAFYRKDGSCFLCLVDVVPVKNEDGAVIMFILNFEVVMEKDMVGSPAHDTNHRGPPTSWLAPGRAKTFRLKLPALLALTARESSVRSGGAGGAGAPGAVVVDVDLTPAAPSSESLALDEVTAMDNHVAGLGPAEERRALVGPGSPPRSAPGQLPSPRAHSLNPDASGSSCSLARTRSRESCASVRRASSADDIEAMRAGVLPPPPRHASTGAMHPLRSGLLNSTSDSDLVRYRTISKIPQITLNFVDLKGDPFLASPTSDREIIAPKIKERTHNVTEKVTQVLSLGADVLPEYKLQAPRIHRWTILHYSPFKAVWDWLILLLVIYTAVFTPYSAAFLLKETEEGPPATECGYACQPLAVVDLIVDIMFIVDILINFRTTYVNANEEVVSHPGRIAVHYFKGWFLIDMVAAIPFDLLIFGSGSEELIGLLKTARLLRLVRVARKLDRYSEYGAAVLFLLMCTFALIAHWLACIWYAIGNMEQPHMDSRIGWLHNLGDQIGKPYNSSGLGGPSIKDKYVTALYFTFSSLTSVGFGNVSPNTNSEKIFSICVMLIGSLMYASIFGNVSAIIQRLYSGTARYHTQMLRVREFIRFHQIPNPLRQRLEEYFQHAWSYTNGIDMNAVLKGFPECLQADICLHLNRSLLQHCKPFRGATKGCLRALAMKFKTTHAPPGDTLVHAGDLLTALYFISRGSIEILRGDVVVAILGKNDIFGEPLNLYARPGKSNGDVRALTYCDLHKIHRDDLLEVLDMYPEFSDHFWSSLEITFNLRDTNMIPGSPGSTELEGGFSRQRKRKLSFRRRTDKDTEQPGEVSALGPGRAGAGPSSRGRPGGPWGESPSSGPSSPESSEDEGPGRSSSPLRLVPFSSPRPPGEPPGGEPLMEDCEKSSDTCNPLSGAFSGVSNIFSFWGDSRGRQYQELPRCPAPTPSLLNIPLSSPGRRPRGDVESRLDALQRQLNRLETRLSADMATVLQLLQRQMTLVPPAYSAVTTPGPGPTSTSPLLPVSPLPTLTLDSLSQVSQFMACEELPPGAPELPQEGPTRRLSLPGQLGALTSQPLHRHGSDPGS
row,SMILES,"hERG current change (%, negative = inhibition) at 10uM"
1,CCOc1ccccc1N1CCN(C(=O)COc2ccc3c(C)cc(=O)oc3c2)CC1,-6.28%
2,Nc1c(C(=O)OCC(=O)NCc2ccccc2)[nH]c(=O)[nH]c1=O,14%
3,Cc1ccc(-c2nc3ccccc3o2)cc1NC(=O)Cc1cccs1,18.7%
4,CCOC(=O)c1ccc(S(=O)(=O)N2CC(=O)Nc3ccccc32)cc1,12.5%
5,CC(NC(=O)CCC(=O)NC(C)c1ccccc1)c1ccccc1 (stereo not drawn),5.2%
6,CON(C)c1nc(OCC#N)nc(N(C)C)n1,27.3%
7,COC(=O)[C@@H](NC(=O)Nc1cccc(Br)c1)C(C)C,-1.91%
8,CCCC(=O)Nc1sc2c(c1C(=O)Nc1ccccn1)CCCC2,0.458%
9,O=C1/C(=C\c2ccncc2)N2CCC1CC2,5.88%
10,CN1C(=O)Nc2cccc3cccc1c23,2.81%
11,COc1ccc(CCn2c(=O)[nH]c3cc(C(=O)N4CCN(c5ccccc5)CC4)ccc3c2=O)cc1OC,14.1%
12,O=C1CCC(=O)N1c1ccc(CSc2nnnn2C2CCCCC2)cc1,-3.22%
13,O=C(NCC(c1ccco1)N1CCOCC1)C1CCCCC1 (stereo not drawn),-0.0207%
14,Cn1cnnc1SCC(=O)NC(=O)NC1CCCC1,-0.498%
15,CCc1n[nH]c(=S)n1/N=C/c1ccc(N(C)c2ccccc2)cc1,18.8%
16,Cc1ccccc1Cc1c(C)nc2nc(SCC(=O)N3CCC4(CC3)OCCO4)nn2c1C,-20.1%
17,COc1ccc(-c2nnn(-c3cc(Cl)cc(Cl)c3)c2N)cc1,18.3%
18,COc1ccccc1NS(=O)(=O)c1ccc2oc(SCC(=O)N3CCNC3=O)nc2c1,-21.6%
19,O=C(Nc1ccc(F)cc1)C1CCCN(S(=O)(=O)c2ccc(-n3cnnn3)cc2)C1 (stereo not drawn),-16.8%
20,CCOc1ccc(NC(=O)Nc2cccc(C)n2)cc1,19.3%
21,O=C(CCl)N(C1CCCC1)C1CCS(=O)(=O)C1 (stereo not drawn),24.4%
22,CCOC(=O)C1CCN(C(=O)COC(=O)c2oc3ccccc3c2C)CC1,-28.3%
23,COCCCNCCCCOc1cccc(Br)c1.O=C(O)C(=O)O,-19.3%

row,SMILES,"hERG current change (%, negative = inhibition) at 10uM"
1,Cc1ccoc1C(=O)Nc1ccc(CC(=O)O)cc1,2.73%
2,COc1cc(/C=c2/sc3nc(-c4ccccc4)c(-c4ccccc4)n3c2=O)cc(OC)c1OC,-3.82%
3,c1ccc(Cc2nnc3sc(-c4ccc5c(c4)OCO5)nn23)cc1,5.05%
4,CCC(C(=O)OCC(=O)Nc1ccccc1-c1ccccc1)c1ccccc1 (stereo not drawn),2.58%
5,N/C(=N\OC(=O)c1ccc(Br)o1)c1ccccn1,9.52%
6,Cc1cc(C)c2nc(SCC#N)cc(C)c2c1,13.5%
7,COc1cc(C(O)P(=O)(OCC(C)C)OCC(C)C)cc(OC)c1OC (stereo not drawn),11.2%
8,O=C(CSc1ncn[nH]1)NCCC(c1ccccc1)c1ccccc1,-2.61%
9,CCOc1ccc(NC(=O)Cn2c(=O)n(CC3CCCO3)c(=O)c3ccccc32)cc1 (stereo not drawn),-1.78%
10,N#Cc1cccnc1Oc1ccccc1,8.55%
11,COc1cccc(/C=N/NC(=O)CNC(=O)c2ccc(S(=O)(=O)N3CCCC3)cc2)c1OC,10.4%
12,COc1cc(NC(=O)c2cccnc2)c(Cl)cc1NC(=O)c1ccccc1,2.88%
13,COc1cc(/C(C)=N/NC(=O)C(O)(c2ccccc2)c2ccccc2)ccc1O,-10.3%
14,CCOC(=O)c1sc(NCCNc2nc(C)c(C(=O)OCC)s2)nc1C,4.45%
15,CCOC(=O)[C@@H]1[C@H]2COc3cc(OC)ccc3[C@@H]2N2C(=O)N(c3cccc(C)c3)C(=O)[C@@]12C,-5.14%
16,O=S(=O)(Nc1cccc2cccnc12)c1ccccc1,16%
17,CCN(Cc1ccccc1)C(=O)C1CCN(c2ncnc3c2nc2n3CCCCC2)CC1,-41.7%
18,Cc1cccc(Cn2c(C)c(C)c3cc(C(=O)NCCN4CCOCC4)ccc32)c1,-26.6%
19,CCN1CCCC1CNC(=O)C(=O)NC(C)c1ccccc1 (stereo not drawn),13%
20,CC(C)C(=O)Nc1nnc(Cc2ccccc2)s1,-2.21%
21,Cc1[nH]n2c(=O)cc(C(C)(C)C)nc2c1-c1ccccc1,-10.6%
22,COc1ccc(NC(=O)CCNC(=O)c2ccco2)cc1Cl,7.41%
